For 90 compounds, Potency results are on record in PubChem BioAssay AID360 (National Center for Advancing Translational Sciences (NCATS), 2006).

In all, about 48,000 compounds went through this assay and about 550 (1.1%) were called active. Not shown: some 4% with an inconclusive outcome. No stated cut-off is given here; in the data, active means potency below about 15 µM; inconclusive means mostly about 16 µM to 33 µM; inactive means weaker than that. The list shows a part of the results.
Potency means the concentration at half of the fitted maximal effect.

Sequence of UniProt P04062 (P04062 whole entry, looked up): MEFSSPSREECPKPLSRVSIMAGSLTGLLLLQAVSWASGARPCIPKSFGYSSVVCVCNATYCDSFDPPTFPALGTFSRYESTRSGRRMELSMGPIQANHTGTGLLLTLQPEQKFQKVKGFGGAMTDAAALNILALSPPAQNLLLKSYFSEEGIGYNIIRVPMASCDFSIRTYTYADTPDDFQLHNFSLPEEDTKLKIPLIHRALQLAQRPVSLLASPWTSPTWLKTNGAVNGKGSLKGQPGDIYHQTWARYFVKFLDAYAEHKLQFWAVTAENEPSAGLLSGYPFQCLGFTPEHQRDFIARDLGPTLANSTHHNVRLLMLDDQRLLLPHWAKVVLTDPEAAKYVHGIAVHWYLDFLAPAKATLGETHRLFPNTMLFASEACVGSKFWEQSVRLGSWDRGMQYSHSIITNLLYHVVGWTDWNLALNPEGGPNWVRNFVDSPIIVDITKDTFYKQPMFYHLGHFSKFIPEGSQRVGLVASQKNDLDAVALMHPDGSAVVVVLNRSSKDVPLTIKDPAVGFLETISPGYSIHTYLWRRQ

The assay concerns the target Lysosomal acid glucosylceramidase (Homo sapiens) (UniProt P04062). Description: Glucocerebrosidase.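 Further: the screen sought inhibitors.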 To be noted: purified enzyme, resorufin glucoside fluorescence (screen aimed at inhibitors), 20 min. The gist of the method:
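Wild-type enzyme at 0.2 nM final in 50mM citric acid/KH2PO4, 10mM sodium taurocholate, 0.01% tween-20, pH 5.9, with resorufin beta-D-glucopyranoside at 30 uM final. Compounds titrated, 20 min at RT, red fluorescence read; AC50 from titration.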
`Cc1nc(SCC(=O)Nc2ccccc2C(F)(F)F)c2c(=O)n(C)c(=O)n(C)c2n1`: the Potency is inactive: > 76.9 µM.

Take `O=C1Nc2ccccc2C(O)(C(=O)NCc2ccc3c(c2)OCO3)N1c1ccccc1` (stereo not given): the Potency is inactive: > 76.9 µM. The figure for `Cc1cc(S(=O)(=O)N2CCN(c3ncccn3)CC2)ccc1-n1cnnn1` is inactive: > 76.9 µM; for `C=CCOc1ccccc1C1C2=C(CC(C)(C)CC2=O)Nc2c1c(=O)n(C)c(=O)n2C` (stereo not given) it is inactive: > 76.9 µM; for `CCCCCC/C(=N/O)c1ccccn1` it is inactive: > 76.9 µM. Take `CCOC(=O)c1sc2nc(CSCC(=O)OCc3ccc(C(=O)OC)o3)[nH]c(=O)c2c1C`: the Potency is inactive: > 76.9 µM. On to `COc1cccc(NC(=O)Cn2cnc3sc(C)c(S(=O)(=O)N4CCN(C)CC4)c3c2=O)c1`, for which the Potency was inactive: > 76.9 µM. `CCCS(=O)(=O)N1CCC(C(=O)NCCN(C)Cc2ccccc2)CC1`: the Potency is inactive: > 76.9 µM. As for `COc1cc(NC(=O)c2cccc(Cl)c2)c(OC)cc1NC(=O)CN1CCOCC1`, the Potency was inactive: > 76.9 µM.

Regarding `CCOc1ccccc1NC(=O)c1cc(CC(C)C)oc1C`, the Potency is inactive: > 76.9 µM. Turning to `CCOC(=O)C(NC(=O)CC)(Nc1ccc(S(=O)(=O)Nc2cc(C)on2)cc1)C(F)(F)F` (stereo not given), the Potency was inactive: > 76.9 µM. Turning to `CN1CCN(CC#CC(C)(O)C2CC3C=CC2C3)CC1` (stereo not given), the Potency was inactive: > 76.9 µM. The figure for `Cc1nn(-c2ccccc2)c2c1C(O)n1c(nc3ccccc31)S2` (stereo not given) is inactive: > 76.9 µM. The figure for `CCn1nc(C(=O)OCC(=O)N2CCc3ccccc32)c2ccccc2c1=O` is inactive: > 76.9 µM. In the case of `O=C1CN(C(=O)CSc2nnnn2-c2ccc(Cl)cc2)c2ccccc2N1` it was inactive: > 76.9 µM; in that of `CC(C(=O)Nc1cccnc1)N1C(=O)C2C3C=CC(C3)C2C1=O` (stereo not given), inactive: > 76.9 µM; in that of `Cn1c(Cn2nnc3ccccc32)nnc1SCC(=O)c1ccc(F)cc1`, inactive: > 76.9 µM.

As to `Cc1cccc(NC(=O)C2CCN(S(=O)(=O)c3cccc4nsnc34)CC2)n1`, the Potency is inactive: > 76.9 µM.

Regarding `O=C(CSc1ncn[nH]1)Nc1ccccc1C(=O)O`, the Potency was inactive: > 76.9 µM. Consider `COC(=O)/C=C1\NCCSC1=O`, for which the Potency was inactive: > 76.9 µM. Regarding `O=C(NCC(c1cccnc1)N1CCOCC1)Nc1ccccc1` (stereo not given), the Potency was inactive: > 76.9 µM. `O=C1Nc2c(c(=O)[nH]c(=O)n2-c2ccccc2)C1(Nc1ncccn1)C(F)(F)F` (stereo not given): the Potency was inactive: > 76.9 µM. As to `COc1cc(S(=O)(=O)N(Cc2cccnc2)Cc2ccco2)ccc1-n1cnnn1`, the Potency was inactive: > 76.9 µM.

On to `CCN(CC)S(=O)(=O)c1ccc(C(=O)C(C#N)c2ccccn2)cc1` (stereo not given), for which the Potency is inactive: > 76.9 µM. As for `Cn1c(=O)c2c(nc(CN3CCN(c4ccccc4)CC3)n2CCc2ccccc2)n(C)c1=O`, the Potency is inactive: > 76.9 µM. For `Cc1cccn2cc(CNC(=O)C3CCCCC3)nc12`, the Potency was inactive: > 76.9 µM. Regarding `O=C(c1cc(-c2ccc(Cl)cc2)on1)N1CCOCC1`, the Potency was inactive: > 76.9 µM. Turning to `COC(=O)c1ccc(CSc2nnnn2-c2ccccc2)o1`, the Potency was inactive: > 76.9 µM. The figure for `O=C(CN1C(=O)c2ccccc2C1=O)Nc1ccccc1C(=O)N1CCCC1` is inactive: > 76.9 µM; for `Cc1nnc(N)nc1C` it is inactive: > 76.9 µM.

In the case of `Cc1ccc(OCc2nc(C#N)c(N3CCN(Cc4ccccc4)CC3)o2)cc1`, the Potency is inactive: > 76.9 µM. In the case of `CCCCCC(=O)Nc1ccc2oc(-c3ccncc3)nc2c1` it was inactive: > 76.9 µM; in that of `O=C(CSc1nnc(-c2ccncc2)n1CC1CCCO1)NCc1ccccc1` (stereo not given), inactive: > 76.9 µM; in that of `COc1cc(NC(=O)C2CCN(S(=O)(=O)c3cccc4nonc34)CC2)cc(OC)c1`, inactive: > 76.9 µM. Consider `COc1ccc(-c2ccc(CCC(=O)O)n2C(C)C)cc1`, for which the Potency is inactive: > 76.9 µM. The figure for `CCSc1nnc(-c2ccc(S(=O)(=O)NCc3cccs3)cc2)o1` is inactive: > 76.9 µM; for `CCCCn1c(NCCC)nc2c1c(=O)[nH]c(=O)n2C` it is inactive: > 76.9 µM. As for `Cc1sc2ncnc(N3CCCCC3C)c2c1C` (stereo not given), the Potency is inactive: > 76.9 µM. In the case of `CN1C(=O)N(C)C2C1N(CN1CCCCC1)C(=O)N2CN1CCCCC1` (stereo not given) it was inactive: > 76.9 µM; in that of `CCOC(=O)N1CCN(Cc2nc(-c3ccccc3)no2)CC1`, inactive: > 76.9 µM; in that of `CCC(CC)C(=O)Nc1cc(NC(=O)C(CC)CC)cc(C(=O)O)c1`, inactive: > 76.9 µM. In the case of `CCOc1ccccc1CNc1ccc(N2CCOCC2)c(C(=O)O)c1`, the Potency was inactive: > 76.9 µM. On to `CCOC(=O)CNC(=O)CSc1nc(N(C)C)nc(N2CCOCC2)n1`, for which the Potency is inactive: > 76.9 µM. On to `CCC(C)NC(=O)CSc1nnc(-c2ccc(C(C)(C)C)cc2)n1C` (stereo not given), for which the Potency was inactive: > 76.9 µM. In the case of `Cc1ncsc1C(=O)Nc1nc2c(s1)CC(C)CC2` (stereo not given), the Potency was inactive: > 76.9 µM. Regarding `CCOc1ccccc1NC(=O)CN(c1nccs1)S(=O)(=O)c1ccc(N)cc1`, the Potency is inactive: > 76.9 µM. As for `Cc1ccc(-n2cccc2C(=S)N=P(N(C)C)(N(C)C)N(C)C)cc1`, the Potency was inactive: > 76.9 µM. In the case of `CN/S(=N/S(=O)(=O)c1ccccc1)c1ccc(C)cc1` (stereo not given), the Potency was inactive: > 76.9 µM. The figure for `CC(SC1CCCC1)C(=O)Nc1ccnn1C(C)C` (stereo not given) is inactive: > 76.9 µM. Consider `COc1ccccc1C(CCN(Cc1cccs1)C(C)=O)c1ccco1` (stereo not given), for which the Potency was inactive: > 76.9 µM. Turning to `COc1cc2c(=O)n(Cc3ccco3)c(=O)n(CC(=O)c3cccc(Br)c3)c2cc1OC`, the Potency was inactive: > 76.9 µM.

As to `O=c1[nH]c2cc3c(cc2cc1C(c1nnnn1C1CCCC1)N1CCSCC1)OCCO3` (stereo not given), the Potency is inactive: > 76.9 µM. `CCCCOc1ccc(-c2nnc(-c3ccncc3)o2)cc1`: the Potency was inactive: > 76.9 µM. In the case of `O=C(Cn1cccc1C(=O)c1ccccc1)NCc1ccco1`, the Potency was inactive: > 76.9 µM. Regarding `CC(=O)N(CN1C(=O)C2CC=CCC2C1=O)c1cccc(Cl)c1` (stereo not given), the Potency was inactive: > 76.9 µM. Turning to `Cc1ccc(S(=O)(=O)Nc2c(C)n(C)n(-c3ccccc3)c2=O)cc1C(=O)NCc1ccccn1`, the Potency is inactive: > 76.9 µM. Consider `FC(F)(F)c1nnc2sc(-c3ccccn3)nn12`, for which the Potency is inactive: > 76.9 µM. `COc1ccccc1-c1nc2s/c(=C\c3cccs3)c(=O)n2n1`: the Potency is active: 5.81 µM. For `O=C1CCC(C(=O)Nc2ccc(OC(F)F)cc2)N1` (stereo not given), the Potency entry was “inactive”. In the case of `Cc1cc(=O)n2c(c1C#N)SC1CCCCC12O` (stereo not given), the Potency is inactive: > 76.9 µM. In the case of `Cc1nc(SCC(=O)Nc2c(C)n(C)n(-c3ccccc3)c2=O)[nH]c(=O)c1Cc1ccccc1` it was inactive: > 76.9 µM; in that of `C=CCN(Cc1cc(OC)ccc1OC)S(=O)(=O)N(C)C`, inactive: > 76.9 µM; in that of `CC(C)(C)NC(=O)CN(Cc1cccs1)C(=O)c1csnn1`, inactive: > 76.9 µM. The figure for `COc1cc(S(=O)(=O)N2CCCCC2)ccc1NC(=O)c1ccc(F)cc1` is inactive: > 76.9 µM. As to `O=C(COC(=O)C1(c2ccc(F)cc2)CCCC1)N1CCN(C(=O)c2ccco2)CC1`, the Potency was inactive: > 76.9 µM. In the case of `O=C(COC(=O)c1ccco1)Nc1ccc2c(c1)OCCO2` it was inactive: > 76.9 µM; in that of `COc1ccc(N2CCN(S(=O)(=O)c3ccc(Cl)c(C(F)(F)F)c3)CC2)cc1`, inactive: > 76.9 µM. In the case of `Cc1cc(NC(=O)CN2CCN(c3ccccc3O)CC2)no1` it was inactive: > 76.9 µM; in that of `Oc1cccc(Nc2nc(NCC3CCCO3)c3ccccc3n2)c1` (stereo not given), active: 7.62 µM; in that of `CCCCCCC(=O)N(O)C1CC(=O)N(Cc2ccccc2)C1=O` (stereo not given), inactive: > 76.9 µM. `CCCn1c(=O)c2ccccc2n2c(SCc3c(C(=O)OCC)oc4ccccc34)nnc12`: the Potency is inactive: > 76.9 µM. As to `COc1ccc(OC)c(NC(=O)Cn2cccc2)c1`, the Potency was inactive: > 76.9 µM. As for `O=S(=O)(N1CCCCC1)N1CCCN(S(=O)(=O)N2CCCCC2)CC1`, the Potency is inactive: > 76.9 µM. Consider `CC(C)CNC(=O)c1cc(-c2ccc(Br)cc2)on1`, for which the Potency is inactive: > 76.9 µM. For `Cc1ccc(-c2c(C)c(-c3ccc(F)cc3)nc(N)c2C#N)o1`, the Potency was inactive: > 76.9 µM. For the compound `COc1ccc(N2C(=O)C(Cl)=C(N(CCO)Cc3ccccc3)C2=O)cc1`, the Potency was inactive: > 76.9 µM. In the case of `C=CCn1cnc2c(c1=O)c1nc3ccccc3nc1n2Cc1ccccc1` it was inactive: > 76.9 µM; in that of `Cc1cccn2c(=O)c3cc(C#N)c(=NC(=O)c4ccc5c(c4)OCO5)n(CC(C)C)c3nc12`, inactive: > 76.9 µM; in that of `CC1(C)OC(=O)N(c2ccccn2)C1(C)O` (stereo not given), inactive: > 76.9 µM. As for `Cc1ccccc1CN1CCN(CC(=O)NCc2ccco2)C1=O`, the Potency is inactive: > 76.9 µM.

`O=C1c2ccccc2C(=O)N1CCCC(=O)N1CCCc2ccccc21`: the Potency was inactive: > 76.9 µM. Regarding `Cn1c(SCC(N)=O)nnc1C1CCN(C(=O)NC2CCCCC2)CC1`, the Potency was inactive: > 76.9 µM. On to `COc1ccccc1C1/C(=C(/O)c2ccc(Cl)cc2)C(=O)C(=O)N1CCN1CCOCC1` (stereo not given), for which the Potency is inactive: > 76.9 µM.

As to `CCC(C)(C)NC(=O)CN(CC1CCCO1)C(=O)CCC(=O)Nc1nccs1` (stereo not given), the Potency was inactive: > 76.9 µM. `CCSc1nnc2c(Cl)cc(Cl)cn12`: the Potency is inactive: > 76.9 µM. Consider `O=C(CN1CC(=O)Oc2ccccc21)OCC(=O)c1ccccc1`, for which the Potency is inactive: > 76.9 µM. In the case of `COc1ccc(OC)c(NC(=O)C(CC(C)C)NC(=O)C2CCCCC2)c1` (stereo not given), the Potency was inactive: > 76.9 µM. In the case of `COc1cc2c(cc1OC)C1=C(C#N)CCC(=O)N1CC2` it was inactive: > 76.9 µM. As to `CCOC(=O)N1CCN(C(=O)CSCC(=O)Nc2nc(-c3ccccc3)cs2)CC1`, the Potency is inactive: > 76.9 µM. As to `Cc1cc(C(=O)Nc2ccc(S(=O)(=O)Nc3nccs3)cc2)c(C)o1`, the Potency was inactive: > 76.9 µM.
